# In all, about 320,000 compounds went through this assay and about 200 (0.062%) were called active. This list was built around the results that the source calls inconclusive (neither active nor inactive); the mix of calls is not that of the screen. The call rests on the fitted dose curve; in most records, active means well fitted activation curve with a large enough effect; inconclusive means small, poorly fitted or top-dose-only effect; inactive means no such curve, though single readings can be large or run the other way. No potency is given beside an inconclusive call; the fits are too rough.
# Test: qHTS assay for re-activators of p53 using a Luc reporter; further: nearly all actives have a fitted effect of over 45% in size
# Details: H1299 p53-A138V BP100-luciferase reporter, luminescence, 24 h; series mostly up to 92.2 µM
# How it was run: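 H1299 (p53-null), stable ts p53-A138V + BP100-Luc; 1000 cells/well, Opti-MEM/10% FBS; cpd 4 pt, 1:5; 24 h, 37 deg C, 5% CO2; detection reagent 10 min RT; luminescence.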
# Potency means the concentration at half of the fitted maximal effect; tags describe the fitted curve by direction and shape.
row,SMILES,Potency
1,O=S(=O)(NC(=S)NC1CCCCC1)c1ccc(Br)cc1,inactive
2,CN1CCN(NC(=O)CN2C(=O)/C(=C/c3ccccc3F)SC2=S)CC1,inactive
3,CCOC(=O)c1sc(NC(=O)Nc2ccccc2F)nc1C,inactive
4,COc1cccc(NC(=O)NC(C)C2CC3CCC2C3)c1 (centres undefined),"inconclusive [activator, single point]"
5,c1ccn(-c2ccc(-c3ccn[nH]3)cc2)c1,"inconclusive [activator, partial curve, poor fit]"
6,O=C(Nc1ccc(N2CCCCC2)cc1)c1ccc([N+](=O)[O-])o1,inactive
7,CCOC(=O)c1c(C)[nH]c(C(=O)COC(=O)CCSc2ccccc2)c1C,"inconclusive [activator, partial curve, poor fit]"
8,CCCc1ccc2oc(C(=O)N3CCCC3)c(C)c2c1,"inconclusive [activator, partial curve, poor fit]"
9,Cc1ccc(NC(=O)/C=C\C(=O)O)c([N+](=O)[O-])c1,"inconclusive [activator, single point]"
10,O=C(CCc1ccccc1)Nc1ccccc1[N+](=O)[O-],"inconclusive [activator, full curve]"
11,COc1ccccc1C(=O)C1CCCN(C(=O)c2ccccc2C(C)=O)C1 (centres undefined),"inconclusive [activator, partial curve, poor fit]"
12,CC[C@]12c3[nH]c4ccc(Cl)cc4c3CCN1C(=O)[C@@H](CC(=O)NCCCOC)C[C@@H]2C(=O)N1CCN(C(=O)c2ccco2)CC1,inactive
13,CC(=O)CC(C)(C)n1nnc(-c2ccccc2)n1,"inconclusive [activator, single point]"
14,Cn1c(CN2CCCCC2)nc2cc(NC(=O)c3ccc(Cl)cc3)ccc21,inactive
15,CCOc1cc(/C=C2/COc3ccccc3C2=O)ccc1OCC(=O)N(C)C,inactive
16,CC(/C=N/NC(=O)c1cc(-c2cccs2)[nH]n1)=C\c1ccccc1,"inconclusive [activator, single point]"
17,CC(C)c1ccc(N(C(=O)c2cc3ccccc3oc2=O)C2C=CS(=O)(=O)C2)cc1 (centres undefined),inactive
18,Cc1ccc(/C=C/C(=O)Nc2ccc([N+](=O)[O-])cc2)o1,"inconclusive [activator, single point]"
19,Cc1cc(C)nc(Nc2nc(=O)c3ccccc3s2)n1,"inconclusive [activator, partial curve, poor fit]"
20,C=CCn1c(C)cc(C2=NNC(=Nc3ccc(C)cc3)SC2)c1C,inactive
21,CCCCSc1nnc(-c2ccccc2N)c(=O)[nH]1,"inconclusive [activator, partial curve, poor fit]"
22,O=C(/C=C\Nc1ccccc1Br)c1ccc2c(c1)OCO2,"inconclusive [activator, full curve, poor fit]"
23,N#Cc1c(NC(=O)CSc2ncnc3sccc23)oc(-c2ccco2)c1-c1ccco1,inactive

row,SMILES,Potency
1,Cc1cc(Br)cc2c1NC(=O)C2(c1c(C)n(C)n(-c2ccccc2)c1=O)c1c(C)n(C)n(-c2ccccc2)c1=O,inactive
2,CCC(=O)N1c2ccc(S(=O)(=O)N3CCN(c4ccccc4Cl)CC3)cc2CC1C (centres undefined),"inconclusive [activator, full curve, poor fit]"
3,CCOC(=O)C(C)/C(C)=N\Nc1ccc([N+](=O)[O-])cc1[N+](=O)[O-] (centres undefined),inactive
4,O=C(CSc1ccc2ccccc2n1)N/N=C/c1ccccc1O,"inconclusive [activator, single point]"
5,O=C(Nc1ccon1)c1sc2ccccc2c1Cl,"inconclusive [activator, full curve, poor fit]"
6,O=C(/C=C/c1ccccc1)Nc1nc(-c2ccncc2)cs1,inactive
7,O=Cc1c(NCc2ccccc2)c2ccccc2[nH]c1=O,"inconclusive [activator, partial curve, poor fit]"
8,O=C(Nc1ccc([N+](=O)[O-])cc1)C1COc2ccccc2O1 (centres undefined),"inconclusive [activator, partial curve, poor fit]"
9,C/C(=N\NC(=O)c1cccc(Br)c1)c1ccccn1,"inconclusive [activator, full curve, poor fit]"
10,C/C(=N\Nc1ccc(Cl)c(C(=O)O)c1)c1cc2ccccc2o1,inactive
11,O=C(OCC(=O)N1CCCC1)c1ccccc1C(=O)c1ccccc1,"inconclusive [activator, single point]"
12,Cc1cc(C(=O)COC(=O)c2ccc3c(c2)OCO3)c(C)n1Cc1cccs1,"inconclusive [activator, partial curve, poor fit]"
13,Cc1cc(C(=O)COC(=O)CNC(=O)c2ccc(F)cc2)c(C)n1Cc1ccco1,"inconclusive [activator, partial curve, poor fit]"
14,CCCCCC/C=C/c1ccc(OC)c([C@H]2[C@H]3C=CC[C@@H](C)[C@@H]3C(=O)N2Cc2ccccc2)c1,inactive
15,Nc1ccccc1SCC(=O)Nc1ccc2c(c1)OCCO2,"inconclusive [activator, partial curve, poor fit]"
16,C=C1CCN(C(Cc2ccccc2)C(=O)OC)S(=O)(=O)c2ccc(F)cc21 (centres undefined),"inconclusive [activator, single point]"
17,CCOc1cccc(CN2CCCC(N3CCN(c4cccc(Cl)c4)CC3)C2)c1O (centres undefined),"inconclusive [activator, partial curve, poor fit]"
18,O=C(CCSc1ccccn1)Nc1ccc(Br)cc1,"inconclusive [activator, partial curve, poor fit]"
19,O=C(NCCc1ccccn1)c1cc2ccccc2o1,"inconclusive [activator, full curve]"
20,O=C(Nc1ccc2ccccc2c1)c1cccc(F)c1,"inconclusive [activator, full curve, poor fit]"
21,COC(=O)c1c(-c2cccs2)csc1NC(=O)c1cccnc1,"inconclusive [activator, partial curve, poor fit]"
22,COc1ccc(NC2=C(Cl)C(=O)N(CCc3ccccc3)C2=O)cc1,"inconclusive [activator, partial curve, poor fit]"
23,CCOc1ccc2nc(NC(=S)N(C)C)sc2c1,"inconclusive [activator, partial curve, poor fit]"

row,SMILES,Potency
1,COc1cccc(CNC(=O)CSc2nc(=O)n(Cc3ccncc3)c3c2CCC3)c1,inactive
2,c1ccc(CCNc2nc(-c3ccccn3)cs2)cc1,"inconclusive [activator, partial curve, poor fit]"
3,COc1ccc(NC(=O)C2=NN(c3ccccc3)C(=O)CC2)cn1,"inconclusive [activator, partial curve, poor fit]"
4,COc1cnc(-c2ccccc2)[nH]c1=O,inactive
5,NC(=O)C1CCN(C(=O)CC2C(=O)NCCN2Cc2cccc(Oc3ccccc3)c2)CC1 (centres undefined),"inconclusive [activator, single point]"
6,O=C(Nc1cccc(-c2cscn2)c1)C1CCN(Cc2ccsc2)CC1,"inconclusive [activator, single point]"
7,Cc1ccc(C(=O)Cc2cc3ccccc3oc2=O)c(C)c1,"inconclusive [activator, partial curve, poor fit]"
8,Oc1ccc(/C=N/NC(=S)Nc2cccnc2)c(O)c1O,inactive
9,CCOC(=O)c1sc(NC(=O)CCN2CCCCCC2)c(C(=O)OCC)c1C,inactive
10,COC(=O)c1ccc2c(=O)n(CCO)c(=S)[nH]c2c1,inactive
11,CC(C)Oc1ccc(/C=C(/NC(=O)c2ccccc2)C(=O)NCCC(=O)O)cc1,inactive
12,Cc1noc(C)c1NC(=O)N(C)C[C@H]1Oc2ccc(NC(=O)Nc3ccc(C(F)(F)F)cc3)cc2C(=O)N([C@H](C)CO)C[C@@H]1C,"inconclusive [activator, single point]"
13,COc1ccccc1NC(=O)c1ccc(C(=O)c2ccccc2)o1,inactive
14,CN(C)c1nc(NCc2ccccc2)nc(N/N=C/c2ccc(Cl)cc2Cl)n1,inactive
15,O=C(Nc1cccc(C(F)(F)F)c1)c1cccnc1NCCc1ccccc1,"inconclusive [activator, single point]"
16,O=C(c1cc(-c2ccc(Cl)cc2)on1)N1CCCCCC1,"inconclusive [activator, full curve, poor fit]"
17,CC(=O)c1cc(F)ccc1OCC(=O)Nc1ccc2c(c1)OCO2,"inconclusive [activator, partial curve, poor fit]"
18,CN(c1ccccc1)S(=O)(=O)c1cc(C(=O)N2CCN(c3ccccn3)CC2)ccc1Cl,inactive
19,Nc1ccc2oc3ccccc3c2c1,"inconclusive [activator, full curve, poor fit]"
20,CC(C)Sc1nnc(NC(=O)c2ccc3c(c2)OCO3)s1,"inconclusive [activator, partial curve, poor fit]"
21,O=c1ccc2ccc(Oc3ccc([N+](=O)[O-])cc3[N+](=O)[O-])cc2o1,inactive
22,O=[N+]([O-])c1nn(-c2ccc3c(c2)OCCO3)n(O)c1=NCCCO,"inconclusive [activator, single point]"
23,CN(C)S(=O)(=O)c1cccc(NC(=S)NN=C(Cc2ccccc2)Cc2ccccc2)c1,inactive

# — PubChem BioAssay AID504706 (National Center for Advancing Translational Sciences (NCATS), 2011)
